Experimental data published in the GPR68 mutational scans of Howard et al. (2025).
Scores whose standard error is large were omitted. The source holds two more conditions with little spread; they are left out. In variant names, del marks residues removed and ins residues inserted between the two positions. For some of these results: The concentration of ogerin is not given here.

B1: GPR68, Q15743 (parent)
chain: MGNITADNSSMSCTIDHTIHQTLAPVVYVTVLVVGFPANCLSLYFGYLQIKARNELGVYLCNLTVADLFYICSLPFWLQYVLQHDNWSHGDLSCQVCGILLYENIYISVGFLCCISVDRYLAVAHPFRFHQFRTLKAAVGVSVVIWAKELLTSIYFLMHEEVIEDENQHRVCFEHYPIQAWQRAINYYRFLVGFLFPICLLLASYQGILRAVRRSHGTQKSRKDQIQRLVLSTVVIFLACFLPYHVLLLVRSVWEASCDFAKGVFNAYHFSLLLTSFNCVADPVLYCFVSETTHRDLARLRGACLAFLTCSRTGRAREAYPLGAPEASGKSGAQGEEPELLTKLHPAFQTPNSPGSGGFPTGRLA

Columns and labels:
[1] = variants of: B1; assay: cAMP reporter score (Enrich2 score, wild type = 0); higher = more signal; HEK293T, FACS bins
[2] = variants of: B1; assay: surface expression score (Enrich2 score, wild type = 0); higher = more signal; HEK293T, FACS bins

Row | Variant | cAMP reporter score ([1]; pH 5.5) | cAMP reporter score ([1]; pH 6) | cAMP reporter score ([1]; pH 6, modulator: ogerin) | cAMP reporter score ([1]; pH 6.5, modulator: ogerin) | surface expression score [2]
1 | S276M | -1 | -2.08 | -0.473 | -1.02 | 0.214
2 | S276H | 0.545 | 2.24 | 0.81 | 1.87 | –
3 | S276G | 0.454 | -0.324 | -0.131 | -0.771 | -0.75
4 | S276V | 0.443 | – | -0.235 | -0.221 | –
5 | S276I | -1.33 | -2.05 | – | -2.28 | -0.658
6 | S276Y | -1.7 | -0.684 | -1.62 | -0.848 | -1.51
7 | S276P | -0.834 | -1.41 | -2.13 | -0.421 | -0.829
8 | S276R | -1.06 | -0.913 | -0.668 | -0.392 | –
9 | C279_V280del | -1.45 | -0.892 | -1.59 | -1.68 | -2.26
10 | V280E | -1.65 | -1.38 | -1.71 | -1.6 | -1.94
11 | V280Q | -1.06 | -0.131 | -1.5 | -1.03 | -2.23
12 | V280N | -0.271 | -1.09 | -1.56 | -1.15 | -1.54
13 | V280W | -1.74 | -0.479 | -2.04 | -1.31 | -2.37
14 | V280A | 0.411 | 0.067 | -0.05 | -0.506 | -1.26
15 | V280G | -1.93 | -0.92 | -1.37 | -1.28 | -1.13
16 | V280L | -0.373 | -0.003 | -0.066 | -0.796 | 0.861
17 | V280C | 0.748 | -0.131 | 0.051 | -0.759 | -0.036
18 | V280F | -0.727 | 0.269 | -0.222 | 1.38 | -1.47
19 | V280D | -1.53 | -0.774 | -1.03 | -1.17 | -1.96
20 | V280I | 0.897 | -0.139 | 1.59 | 0.917 | 1.9
21 | V280M | -0.565 | -1.21 | -1.11 | -1.3 | -0.551

Row | Variant | cAMP reporter score ([1]; pH 5.5) | cAMP reporter score ([1]; pH 6) | cAMP reporter score ([1]; pH 6, modulator: ogerin) | cAMP reporter score ([1]; pH 6.5, modulator: ogerin) | surface expression score [2]
22 | V280Y | -0.466 | -0.094 | -1.73 | -1.27 | -1.78
23 | V280T | -1.43 | -1.18 | -1.44 | -1.59 | -2.14
24 | V280K | -1.01 | -0.632 | -1.78 | -1.79 | -2.09
25 | V280P | -1.34 | -0.568 | -1.49 | -0.87 | -1.97
26 | V280H | -0.932 | -0.317 | -2.15 | -0.735 | -2.15
27 | V280S | -0.935 | -0.68 | -1.59 | -0.689 | -2.42
28 | V280R | -0.831 | – | -1.4 | -0.578 | -2.76
29 | L285R | -0.988 | -0.344 | -1.65 | -1.01 | -2.73
30 | L285D | -1.64 | 0.346 | -0.964 | 0.455 | -2.95
31 | L285K | -1.26 | -1.35 | -1.74 | -0.9 | -2.57
32 | L285I | 2.43 | – | 2.15 | 3.29 | 0.321
33 | L285H | -0.022 | -0.953 | -0.617 | -2.11 | -2.24
34 | L285C | 0.919 | 0.946 | 0.511 | -0.028 | -1.44
35 | L285M | 0.116 | -0.117 | 0.393 | 0.014 | -0.074
36 | L285G | -1.35 | -0.904 | -0.317 | -0.356 | -2.21
37 | L285N | -1.46 | -1.03 | -1.66 | -0.546 | -2.28
38 | L285P | -1.17 | -0.58 | -1.43 | -0.791 | -1.27
39 | L285A | -0.642 | -0.399 | -1.24 | -1.13 | -2.31
40 | L285Q | -0.773 | -0.739 | -0.978 | -1.13 | -2.06
41 | L285F | 0.568 | 3.46 | 0.675 | 2 | –
42 | L285E | -1.15 | -0.045 | -1.14 | -0.693 | -1.91

Row | Variant | cAMP reporter score ([1]; pH 5.5) | cAMP reporter score ([1]; pH 6) | cAMP reporter score ([1]; pH 6, modulator: ogerin) | cAMP reporter score ([1]; pH 6.5, modulator: ogerin) | surface expression score [2]
43 | A281D | -1.13 | -0.584 | -1.07 | -0.835 | -1.58
44 | A281G | -1.27 | -0.983 | -1.41 | -1.14 | -1.01
45 | A281L | -0.005 | -1.43 | -0.377 | -1.13 | 2.57
46 | A281C | -0.094 | -0.647 | 0.476 | -0.464 | 1.05
47 | A281E | -1.45 | -1.06 | -2.37 | -1.58 | -2.26
48 | A281Y | -0.872 | -1.17 | -0.878 | -0.564 | -1.9
49 | A281R | -1.74 | -1.17 | -0.311 | -1.63 | -3.5
50 | A281H | -0.41 | 0.943 | – | – | –
51 | A281N | -1.04 | -0.185 | -1.38 | -1.19 | -3.58
52 | A281K | -1.51 | -1.38 | -1.49 | -0.964 | -1.13
53 | A281Q | -1.29 | -1.39 | -1.98 | -1.47 | -2.19
54 | A281W | 0.01 | 0.8 | 0.353 | 1.46 | 0.048
55 | A281T | 0.557 | -0.246 | 0.106 | -0.989 | -0.873
56 | A281V | -1.86 | -1.36 | -1.52 | -0.733 | 0.263
57 | A281P | -0.816 | 0.443 | -0.458 | -0.902 | -2.62
58 | A281S | 0.715 | -1.47 | -0.179 | -1.02 | –
59 | A281F | -0.227 | -0.534 | -0.878 | -0.819 | 0.365
60 | A281M | -0.435 | – | -0.563 | -0.989 | -0.255
61 | C279_V280insGS | -1.78 | -0.742 | -2.2 | -1.08 | -2.02
62 | V280_A281insGSG | -1.06 | -1.21 | -0.742 | -1.04 | -2.18
63 | N278_V280del | -1.21 | – | -1.65 | -0.964 | -2.56
